This is an account of results in PMC6656915, “The MmpL3 interactome reveals a complex crosstalk between cell envelope biosynthesis and cell elongation and division in mycobacteria” (Scientific Reports, 2019).

Results are given in words; binding and its absence hold for the method and conditions named. Sequences can lack the tags named with a protein.

This assay concerns the target T1, MmpL3 (full-size) fused to T18 or T25 domain for the BACTH two-hybrid system (M. tuberculosis) (UniProt P9WJV5).
T1 sequence: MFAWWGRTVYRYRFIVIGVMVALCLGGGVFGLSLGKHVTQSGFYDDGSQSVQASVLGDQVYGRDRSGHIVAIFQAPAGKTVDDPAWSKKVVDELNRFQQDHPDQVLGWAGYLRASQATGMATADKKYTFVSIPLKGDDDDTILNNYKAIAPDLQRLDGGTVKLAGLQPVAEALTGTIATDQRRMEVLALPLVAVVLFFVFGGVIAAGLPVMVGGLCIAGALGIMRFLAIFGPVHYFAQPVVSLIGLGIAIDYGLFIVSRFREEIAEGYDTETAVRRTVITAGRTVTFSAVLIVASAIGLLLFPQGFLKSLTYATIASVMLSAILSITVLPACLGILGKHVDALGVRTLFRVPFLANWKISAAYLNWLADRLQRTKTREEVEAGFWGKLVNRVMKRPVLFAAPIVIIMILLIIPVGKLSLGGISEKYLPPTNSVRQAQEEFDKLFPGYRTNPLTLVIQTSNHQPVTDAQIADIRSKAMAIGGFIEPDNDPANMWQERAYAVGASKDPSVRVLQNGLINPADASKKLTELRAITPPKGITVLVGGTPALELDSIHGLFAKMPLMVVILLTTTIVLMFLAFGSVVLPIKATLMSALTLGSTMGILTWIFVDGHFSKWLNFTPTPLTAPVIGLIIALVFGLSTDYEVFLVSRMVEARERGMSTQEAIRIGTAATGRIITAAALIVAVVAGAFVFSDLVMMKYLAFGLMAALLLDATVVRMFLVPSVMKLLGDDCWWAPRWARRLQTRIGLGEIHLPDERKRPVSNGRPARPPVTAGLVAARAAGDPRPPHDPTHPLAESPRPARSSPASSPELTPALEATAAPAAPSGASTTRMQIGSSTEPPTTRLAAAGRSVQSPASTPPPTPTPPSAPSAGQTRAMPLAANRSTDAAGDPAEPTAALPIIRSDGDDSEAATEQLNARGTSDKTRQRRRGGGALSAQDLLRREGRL
Nature of the assay: two-hybrid.

B1: KasB, BACTH fusion (enzyme, UniProt P9WQD7 1-417)
chain: MTELVTGKAFPYVVVTGIAMTTALATDAETTWKLLLDRQSGIRTLDDPFVEEFDLPVRIGGHLLEEFDHQLTRIELRRMGYLQRMSTVLSRRLWENAGSPEVDTNRLMVSIGTGLGSAEELVFSYDDMRARGMKAVSPLTVQKYMPNGAAAAVGLERHAKAGVMTPVSACASGAEAIARAWQQIVLGEADAAICGGVETRIEAVPIAGFAQMRIVMSTNNDDPAGACRPFDRDRDGFVFGEGGALLLIETEEHAKARGANILARIMGASITSDGFHMVAPDPNGERAGHAITRAIQLAGLAPGDIDHVNAHATGTQVGDLAEGRAINNALGGNRPAVYAPKSALGHSVGAVGAVESILTVLALRDQVIPPTLNLVNLDPEIDLDVVAGEPRPGNYRYAINNSFGFGGHNVAIAFGRY
As for B1, the binding result was “no binding”.
